Assay results from PubChem BioAssay (NCI).
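At the GI50, growth is halved. TGI is the concentration that stops growth completely.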

How the values were obtained:
Test in all cases: DTP human tumour cell line panel, 384-well format
CCRF-CEM leukemia = tested on: CCRF-CEM leukemia
NCI/ADR-RES ovarian = tested on: NCI/ADR-RES ovarian
RPMI-8226 leukemia = tested on: RPMI-8226 leukemia
SK-MEL-5 melanoma = tested on: SK-MEL-5 melanoma
SR leukemia = tested on: SR leukemia

With `O=C(CCCCCCC(=O)Nc1ccccc1)NO` the GI50 (CCRF-CEM leukemia) was 178 nM, the TGI (CCRF-CEM leukemia) was 324 nM and the GI50 (NCI/ADR-RES ovarian) was 241 nM. The TGI (NCI/ADR-RES ovarian) was 668 nM, the GI50 (RPMI-8226 leukemia) was 206 nM and the TGI (RPMI-8226 leukemia) was 462 nM. The GI50 (SK-MEL-5 melanoma) was 285 nM, the TGI (SK-MEL-5 melanoma) was 965 nM and the GI50 (SR leukemia) was 203 nM. For the same compound, the TGI (SR leukemia) was 375 nM.
